{
  "source": "patent EP4810038A1",
  "about": "“METHOD FOR TREATING ALK-POSITIVE OR ROS1-POSITIVE NON-SMALL CELL LUNG CANCER” (Shenzhen TargetRx Co., Ltd., priority 2023, dated 2025)",
  "system": "intracranial measurable lesions of ALK-positive advanced NSCLC",
  "experiment": "Phase II single-arm trial, 60 mg QD: intracranial tumor efficacy (IRC assessment)",
  "key": {"[1]": {"settings": "IRC, 44 subjects with intracranial measurable lesions"}, "[2]": {"settings": "intracranial BOR, IRC assessment, full analysis set, 44 subjects with intracranial measurable target lesions, data cutoff May 20, 2024"}},
  "data": [
    {"smiles": "[2H]C([2H])([2H])n1nc2c(c1C#N)-c1cnc(N)c(c1)O[C@H](C)c1cc(F)ccc1C(=O)N(C)C2", "note": "[compound A, (10R)-7-amino-12-fluoro-2-(methyl-d3)-10,16-dimethyl-15-oxo-10,15,16,17-tetrahydro-2H-8,4-(metheno)pyrazolo[4,3-h][2,5,11]benzoxadiazacyclotetradecine-3-carbonitrile]", "values": [
      {"measurement": "IC-ORR, n (%)", "setting": "IRC assessment, full analysis set, 44 subjects with intracranial measurable target lesions, 95% CI 38.85, 69.61, data cutoff May 20, 2024", "value": "24 (54.5) n (%)"},
      {"measurement": "IC-DCR, n (%)", "setting": "IRC assessment, full analysis set, 44 subjects with intracranial measurable target lesions, 95% CI 69.93, 93.36, data cutoff May 20, 2024", "value": "37 (84.1) n (%)"},
      {"measurement": "IC-DCR", "setting": "[1]", "value": 84.1, "unit": "%"},
      {"measurement": "IC-ORR", "setting": "[1]", "value": 54.5, "unit": "%"},
      {"measurement": "intracranial best objective response CR", "setting": "[1]", "value": "No subjects"},
      {"measurement": "intracranial best objective response PR", "setting": "[1]", "value": 54.5, "unit": "%"},
      {"measurement": "median IC-DOR", "setting": "[1]", "value": 9.76, "unit": "months"},
      {"measurement": "median IC-PFS", "setting": "[1]", "value": 9.66, "unit": "months"},
      {"measurement": "median IC-TTR", "setting": "[1]", "value": 1.41, "unit": "months"},
      {"measurement": "BOR, n (%) CR", "setting": "[2]", "value": "0 n (%)"},
      {"measurement": "BOR, n (%) NE", "setting": "[2]", "value": "0 n (%)"},
      {"measurement": "BOR, n (%) PD", "setting": "[2]", "value": "7 (15.9) n (%)"},
      {"measurement": "BOR, n (%) PR", "setting": "[2]", "value": "24 (54.5) n (%)"},
      {"measurement": "BOR, n (%) SD", "setting": "[2]", "value": "13 (29.5) n (%)"}
    ]}
  ]
}
